Experimental data from article PMC4336329 (PLoS ONE, 2015).
About 2,200 (0.71%) of roughly 310,000 compounds showed an effect of 50% or more. The effect is printed as a negative number. Some of the results follow.

Target: human ether-à-go-go-related gene (hERG) potassium channel (human, UniProt Q12809)
Test: primary screen, population patch clamp on CHO cells stably expressing hERG

Sequence of human ether-à-go-go-related gene (hERG) potassium channel (Q12809 whole entry, looked up): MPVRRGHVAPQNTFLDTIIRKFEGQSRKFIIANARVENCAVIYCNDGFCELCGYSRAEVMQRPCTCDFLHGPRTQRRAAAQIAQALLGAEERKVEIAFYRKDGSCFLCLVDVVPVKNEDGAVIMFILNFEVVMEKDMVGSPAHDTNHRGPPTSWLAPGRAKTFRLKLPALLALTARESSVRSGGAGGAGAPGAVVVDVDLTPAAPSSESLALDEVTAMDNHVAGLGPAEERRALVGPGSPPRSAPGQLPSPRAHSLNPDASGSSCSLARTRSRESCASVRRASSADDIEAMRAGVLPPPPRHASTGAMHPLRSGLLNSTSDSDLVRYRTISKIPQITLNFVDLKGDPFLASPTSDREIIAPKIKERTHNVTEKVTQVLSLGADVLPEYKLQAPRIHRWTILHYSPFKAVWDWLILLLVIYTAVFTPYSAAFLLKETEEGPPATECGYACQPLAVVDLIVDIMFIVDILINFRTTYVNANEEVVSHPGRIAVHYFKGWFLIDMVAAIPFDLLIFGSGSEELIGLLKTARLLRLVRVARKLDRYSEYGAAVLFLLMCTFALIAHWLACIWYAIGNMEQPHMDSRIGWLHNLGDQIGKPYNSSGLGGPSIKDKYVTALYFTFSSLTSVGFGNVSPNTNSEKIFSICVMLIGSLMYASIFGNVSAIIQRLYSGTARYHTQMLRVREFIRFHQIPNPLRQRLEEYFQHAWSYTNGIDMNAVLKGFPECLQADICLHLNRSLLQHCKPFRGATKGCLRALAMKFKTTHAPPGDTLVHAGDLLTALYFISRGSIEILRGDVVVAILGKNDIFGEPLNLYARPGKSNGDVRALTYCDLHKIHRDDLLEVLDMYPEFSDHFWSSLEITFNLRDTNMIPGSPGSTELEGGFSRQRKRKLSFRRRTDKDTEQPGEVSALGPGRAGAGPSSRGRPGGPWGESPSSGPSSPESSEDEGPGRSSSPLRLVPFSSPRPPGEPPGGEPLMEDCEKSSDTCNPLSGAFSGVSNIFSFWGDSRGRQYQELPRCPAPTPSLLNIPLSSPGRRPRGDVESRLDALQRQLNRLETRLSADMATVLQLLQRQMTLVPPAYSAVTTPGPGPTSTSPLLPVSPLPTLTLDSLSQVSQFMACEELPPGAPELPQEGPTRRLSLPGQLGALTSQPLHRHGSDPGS

| SMILES | hERG current change (%, negative = inhibition) at 1uM |
| --- | --- |
| COc1ccc(C(=O)NCCn2nc(C)cc2C)cc1OC1CCN(C(C)=O)CC1 | 21.2% |
| Cn1cccc1C(=O)NCC(c1ccco1)N1CCCCC1 (stereo not drawn) | -6.83% |
| Nn1c(SCC(=O)N2CCN(S(=O)(=O)c3ccc(Cl)cc3)CC2)nnc1-c1cccs1 | -0.867% |
| Nc1nnc(SCCCOc2ccc(F)cc2)s1 | 12% |
| COc1ccc(S(=O)(=O)N(CC(=O)O)c2ccc(C)cc2)cc1 | 7.36% |
| CC1=NC(C(F)(F)F)(C(F)(F)F)C2=C(CC(C)(C)CC2=O)N1Cc1ccco1 | 9.11% |
| O=C(Cc1cccs1)N=Nc1c(O)[nH]c2ccc(Br)cc12 | 7.49% |
| CC(C)CNC(=O)COC(=O)/C=C/c1ccccc1[N+](=O)[O-] | 14.9% |
| CCOc1ccc(-n2c(SCc3ccc(C(=O)OC)o3)nc3c(c2=O)SCC3)cc1 | 2.46% |
| CCNc1ccc(C(=O)OCC(=O)Nc2cc(C)on2)cc1[N+](=O)[O-] | 10.9% |
| COc1cc(C)c(C(=O)Oc2cc(C)c(C(=O)O)c(O)c2C)c(OC)c1C | -0.425% |
| CC(C)(C)c1ccc(O)c(N=Cc2cc(Br)ccc2O)c1 | 8.85% |
| Cc1cc(C)c(C(=O)CSC2=NC(N)=C(C#N)C3(CCCCC3)C2C(N)=O)cc1C (stereo not drawn) | -0.933% |
| CCc1ccccc1NC(=O)c1cc(-c2ccco2)on1 | 13% |
| CN(Cc1ccc(Br)cc1)C(=O)CCN1C(=O)c2cccc([N+](=O)[O-])c2C1=O | 15.8% |
| Cc1ccc(Cl)cc1N1CCN(S(=O)(=O)N2CCCCC2)CC1 | 12% |
| COc1ccccc1OCCOCCn1cnc2ccccc2c1=O | 12.3% |
| COc1cc(C(=O)Nc2nnc(SCC(=O)NCC3CCCO3)s2)cc(OC)c1OC (stereo not drawn) | 16.4% |
| C/C(=C\C1CCCCC1)C(NC(=O)c1ccc(C(F)(F)F)cc1)c1ccc(-c2ccccc2)cc1 (stereo not drawn) | 13.9% |
| O=C(Cn1nnc(-c2ccc(Cl)cc2)n1)NCCC1=CCCCC1 | 10.9% |
| Cc1cc(C)c2c(c1)C1(OCCO1)C(=O)N2 | 14.2% |
| COc1ccc(-c2nn(C)c(=O)c3ccccc23)cc1CNC(=O)CN1CCOCC1 | 6.56% |
| COc1ccc(NC(=O)CSc2nncs2)cc1S(N)(=O)=O | 12.9% |
| Cl.N[C@H]1C(O)O[C@H](CO)[C@@H](O)[C@@H]1O (stereo partly drawn) | 17.3% |

| SMILES | hERG current change (%, negative = inhibition) at 1uM |
| --- | --- |
| Cc1c(C(=O)OCCN2CCCCC2)oc2ccccc12.Cl | -13.9% |
| O=C(O)Cn1c(=O)cnc2ccccc21 | 11.8% |
| Cc1cc2c(cc1S(N)(=O)=O)S(=O)(=O)CCC2 | 18.6% |
| O=C(NNS(=O)(=O)c1ccc(F)cc1)c1cc(Cl)ccc1O | 8.95% |
| CC1(C)Cc2ccccc2/C(=C/C(=O)c2ccccc2)N1 | 12.2% |
| O=C(CCC(=O)Nc1ccccc1)N/N=C/c1ccccc1F | 15.8% |
| CC1CCN(CC(O)COc2ccc(F)cc2)CC1 (stereo not drawn) | -13.3% |
| Cc1cc2c(NCCc3ccccc3)ncnc2s1.Cl | 4.42% |
| CC12CCC(=O)N1C(C(=O)NNC(=O)COc1ccccc1F)CS2 (stereo not drawn) | 6.72% |
| Cc1cccc(NC(=O)NC2(C)CCS(=O)(=O)C2)c1 (stereo not drawn) | 5.83% |
| CCCCN1CC[C@H]2C=CC[C@@H](C(=O)Nc3ccc(Cl)c(C(F)(F)F)c3)[C@H]2C1=O | 5.4% |
| Cc1c(CC=C(Cl)Cl)c(=O)[nH]c2c(C)cccc12 | 15.4% |
| COC(=O)C1=C(C)Nc2c(c(=O)n(C)c(=O)n2C)C1c1cccc(O)c1 (stereo not drawn) | 13.1% |
| COc1ccc(OC)c(-c2csc(N(Cc3ccco3)C(=O)c3cccs3)n2)c1 | -0.179% |
| COc1ccc(C(=O)COC(=O)CNC(=O)c2cccs2)cc1Br | 9.1% |
| N#CCOC(=O)C1c2ccccc2Oc2ccccc21 | 10.8% |
| CCOc1ccccc1-n1cnc2cc(C(=O)NCc3ccco3)ccc21 | -0.462% |
| O=C(c1csc(Nc2cccc3ccccc23)n1)N1CCCC1 | 0.12% |
| CC(=O)c1ccc(NS(=O)(=O)c2ccccc2)cc1 | -2.4% |
| S=c1[nH]cnc2sc(-c3ccccc3)cc12 | -1.18% |
| COCCNc1nc(N)c([N+](=O)[O-])c(NCc2ccccc2)n1 | 13.6% |
| CCOC(=O)N1CCN(Cc2nc(N)nc(Nc3ccc(OCC)cc3)n2)CC1 | -56% |
| Cc1ccc(NC(=O)CN2C(=O)/C(=C\c3cccs3)SC2=S)cc1 | 12.7% |
| Cc1cc(N)n2ncc(-c3ccc(F)cc3)c2n1 | 13.2% |

| SMILES | hERG current change (%, negative = inhibition) at 1uM |
| --- | --- |
| O=C(Nc1nncs1)c1cc(-c2ccncc2)nc2ccc(Cl)cc12 | 8.23% |
| COc1ccc(S(=O)(=O)N2CCN(C(=S)Nc3ccc(S(N)(=O)=O)cc3)CC2)cc1 | 18.7% |
| CN(C)S(=O)(=O)c1cccc(NC(=S)N/N=C/c2ccco2)c1 | -7.86% |
| O=C(Nc1ccccc1)Nc1ccc(-n2ccc(C(F)(F)F)n2)cc1 | 7.05% |
| CCS(=O)(=O)Nc1ccc(NC(C)=O)cc1 | -1.44% |
| C=CCNC(=O)CSCc1ccc(Br)cc1 | 15.2% |
| Cc1ccc(OCCn2cnc3ccccc3c2=O)c([N+](=O)[O-])c1.O=C(O)C(=O)O | 5.56% |
| COc1ccc(C(=O)CSc2nnc(COc3ccc(C#N)cc3)n2-c2ccccc2)cc1 | -2.18% |
| NC(=O)c1cnn2c(-c3ccc(Cl)cc3Cl)ccnc12 | 12.3% |
| C#CCn1c(-c2ccccc2)ccc(C#N)c1=O | 11.6% |
| COc1ccc(/C=N/NC(=O)CCC(=O)Nc2ccc(Br)cc2)c(OC)c1 | 4.84% |
| CCCC(=O)N1CCCC(c2nc(-c3cccc(OC)c3)no2)C1 (stereo not drawn) | 31.2% |
| CCc1nnc(NC(=O)Nc2ccccc2OC)s1 | 8.3% |
| O=C(O)CN(CCc1ccccc1)S(=O)(=O)c1ccccc1 | 9.8% |
| O=P(O)(O)/C=C(\Cl)c1ccccc1 | 2.01% |
| CC1CCCCN1C(=O)CSc1nc(C2CC2)nc2ccccc12 (stereo not drawn) | 3.47% |
| Cc1ccc(C)c(-n2c(C)cc(/C=N/NC(=O)c3c(C)nc4cc(C)ccn34)c2C)c1 | 15% |
| COc1cccc(OC)c1C(=O)OCC(=O)NC(=O)NCc1ccccc1 | -2.85% |
| CN1CCN(S(=O)(=O)c2ccc(N)cc2)CC1 | 5.66% |
| Nc1c([N+](=O)[O-])c(=O)sc2ccccc12 | 2.09% |
| CCOC(=O)c1c(N)sc2c(O)c(Br)ccc12 | 4.23% |
| CN(CCOC(=O)/C=C/c1ccccc1)C(C)(C)C.Cl | 2.11% |
| COc1ccccc1NC(=O)[C@H](COCc1ccccc1)NC(=O)OC(C)(C)C | 13.9% |
| C/C(=N/NC(=O)c1ccco1)c1ccc(NC(=O)c2ccc(Br)o2)cc1 | 2.23% |

| SMILES | hERG current change (%, negative = inhibition) at 1uM |
| --- | --- |
| N#CCCn1c(SCC(=O)NCC2CCCO2)nc2ccccc21 (stereo not drawn) | 5.49% |
| Cc1ccc(CN(Cc2ccccn2)C(=O)Nc2c(F)cccc2F)cc1 | 8.27% |
| COc1ccc2[nH]c(=O)c(CN(CCO)C(=O)c3ccccc3F)cc2c1 | 10.2% |
| CCNC(=O)COC(=O)C1C(C(=O)OCC)=C(C)NC(C)=C1C(=O)OCC | 6.03% |
| CC(=O)Oc1ccc2ccccc2c1C(NC(=O)Cc1ccccc1)c1ccc(Cl)cc1 (stereo not drawn) | -3.89% |
| CCOC(=O)c1c(C)oc2c(F)c(F)c(F)c(F)c2c1=O | 5.01% |
| COc1ccccc1NC(=O)c1ccc2nsnc2c1 | 16.3% |
| CC(C)Oc1ccc(Cc2c(O)[nH]c(=O)[nH]c2=O)cc1 | 7.25% |
| O=C1Nc2ccccc2C1Cc1ccc(OC(F)(F)F)cc1 (stereo not drawn) | 19.5% |
| FC(F)(Cl)c1nnc2ccc(Sc3ccccn3)nn12 | 8.89% |
| C=CCn1c(CCC(O)COCCCCC)n[nH]c1=S (stereo not drawn) | 15.8% |
| Cc1cc(-c2ccccc2)nc2[n+]1CCN2C.[Br-] | 11.9% |
| CC(Oc1ccc(Br)cc1)C(=O)NCc1ccccn1 (stereo not drawn) | 14.6% |
| COc1cccc(/C=N/Nc2c(Cl)cncc2Cl)c1O | 12.7% |
| COc1ccc(N(CC(=O)NC2CCCCCCC2)S(=O)(=O)c2c(C)nn(C)c2C)cc1 | 8.51% |
| Cc1ccsc1C(=O)OCC(=O)c1cc2ccccc2o1 | 2.16% |
| COc1ccc(NC(=O)NNC(=O)c2cc3occc3n2C)c(OC)c1 | 7.94% |
| Cc1cc(/C=C(\C#N)C(=O)NCCc2c[nH]c3ccccc23)c(C)n1C | 8.18% |
| CSCCC(NC(=O)c1ccco1)C(=O)N1CCCCCCC1 (stereo not drawn) | 5.86% |
| COc1ccc2c(c1)CC1c3c(cc4c(c3-2)OCO4)CC[N+]1(C)[O-] (stereo not drawn) | 2.5% |
| CC1(C)C2CCC1(C)C(OCCNCCOC(=O)Nc1ccccc1)C2 (stereo not drawn) | -0.563% |
